Experimental data: doi:10.1101/2024.08.28.609967 (bioRxiv, 2024)
These are yes or no findings as the source states them, for the method shown. For part of these data: In cells and extracts the contact can be indirect. Some entries that bind do so weakly or less than the wild type. For part of these data: Where a sequence is shown, tags or fusion partners need not be part of it. One block for each molecule: values may come before it.

Chains of the proteins cited; added tags and fusions are not shown. Lines headed by an entry give the natural chain unless they say otherwise; changes in a name come on top. A line that says so, or that is headed by a name, gives the form on record, which may keep a tag or linker. Residues count along the entry.
UniProt Q9BXK5, residues 1-465: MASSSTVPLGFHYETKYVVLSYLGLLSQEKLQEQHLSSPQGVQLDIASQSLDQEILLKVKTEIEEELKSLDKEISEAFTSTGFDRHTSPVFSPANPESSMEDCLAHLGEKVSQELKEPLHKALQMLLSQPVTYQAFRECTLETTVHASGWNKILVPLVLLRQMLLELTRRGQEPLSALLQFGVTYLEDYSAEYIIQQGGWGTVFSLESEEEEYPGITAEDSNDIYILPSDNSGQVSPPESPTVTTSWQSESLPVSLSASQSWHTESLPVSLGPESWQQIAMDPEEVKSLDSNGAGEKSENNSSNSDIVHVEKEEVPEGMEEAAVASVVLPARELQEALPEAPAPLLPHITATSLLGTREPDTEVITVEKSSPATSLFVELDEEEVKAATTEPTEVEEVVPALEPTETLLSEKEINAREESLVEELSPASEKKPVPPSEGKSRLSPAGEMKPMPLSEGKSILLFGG
UniProt O60238, residues 1-182: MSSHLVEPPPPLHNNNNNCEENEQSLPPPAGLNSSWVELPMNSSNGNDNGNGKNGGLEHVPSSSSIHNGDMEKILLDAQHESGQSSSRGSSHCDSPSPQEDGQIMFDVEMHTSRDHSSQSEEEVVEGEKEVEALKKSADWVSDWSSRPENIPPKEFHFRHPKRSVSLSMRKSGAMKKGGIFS
UniProt Q6ZNE5: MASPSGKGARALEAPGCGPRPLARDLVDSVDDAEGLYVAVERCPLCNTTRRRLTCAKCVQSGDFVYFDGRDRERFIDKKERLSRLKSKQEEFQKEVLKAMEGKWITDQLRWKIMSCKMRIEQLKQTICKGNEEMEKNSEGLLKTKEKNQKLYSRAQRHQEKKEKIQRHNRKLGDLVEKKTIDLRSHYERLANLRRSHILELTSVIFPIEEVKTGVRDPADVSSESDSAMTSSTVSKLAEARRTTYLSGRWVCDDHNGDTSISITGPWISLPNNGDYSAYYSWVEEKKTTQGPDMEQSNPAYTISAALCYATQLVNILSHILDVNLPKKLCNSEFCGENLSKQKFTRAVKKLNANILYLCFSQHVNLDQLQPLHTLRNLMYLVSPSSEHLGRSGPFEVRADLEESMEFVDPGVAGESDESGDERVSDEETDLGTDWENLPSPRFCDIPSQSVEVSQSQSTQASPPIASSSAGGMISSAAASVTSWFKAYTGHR
UniProt Q8TDY2: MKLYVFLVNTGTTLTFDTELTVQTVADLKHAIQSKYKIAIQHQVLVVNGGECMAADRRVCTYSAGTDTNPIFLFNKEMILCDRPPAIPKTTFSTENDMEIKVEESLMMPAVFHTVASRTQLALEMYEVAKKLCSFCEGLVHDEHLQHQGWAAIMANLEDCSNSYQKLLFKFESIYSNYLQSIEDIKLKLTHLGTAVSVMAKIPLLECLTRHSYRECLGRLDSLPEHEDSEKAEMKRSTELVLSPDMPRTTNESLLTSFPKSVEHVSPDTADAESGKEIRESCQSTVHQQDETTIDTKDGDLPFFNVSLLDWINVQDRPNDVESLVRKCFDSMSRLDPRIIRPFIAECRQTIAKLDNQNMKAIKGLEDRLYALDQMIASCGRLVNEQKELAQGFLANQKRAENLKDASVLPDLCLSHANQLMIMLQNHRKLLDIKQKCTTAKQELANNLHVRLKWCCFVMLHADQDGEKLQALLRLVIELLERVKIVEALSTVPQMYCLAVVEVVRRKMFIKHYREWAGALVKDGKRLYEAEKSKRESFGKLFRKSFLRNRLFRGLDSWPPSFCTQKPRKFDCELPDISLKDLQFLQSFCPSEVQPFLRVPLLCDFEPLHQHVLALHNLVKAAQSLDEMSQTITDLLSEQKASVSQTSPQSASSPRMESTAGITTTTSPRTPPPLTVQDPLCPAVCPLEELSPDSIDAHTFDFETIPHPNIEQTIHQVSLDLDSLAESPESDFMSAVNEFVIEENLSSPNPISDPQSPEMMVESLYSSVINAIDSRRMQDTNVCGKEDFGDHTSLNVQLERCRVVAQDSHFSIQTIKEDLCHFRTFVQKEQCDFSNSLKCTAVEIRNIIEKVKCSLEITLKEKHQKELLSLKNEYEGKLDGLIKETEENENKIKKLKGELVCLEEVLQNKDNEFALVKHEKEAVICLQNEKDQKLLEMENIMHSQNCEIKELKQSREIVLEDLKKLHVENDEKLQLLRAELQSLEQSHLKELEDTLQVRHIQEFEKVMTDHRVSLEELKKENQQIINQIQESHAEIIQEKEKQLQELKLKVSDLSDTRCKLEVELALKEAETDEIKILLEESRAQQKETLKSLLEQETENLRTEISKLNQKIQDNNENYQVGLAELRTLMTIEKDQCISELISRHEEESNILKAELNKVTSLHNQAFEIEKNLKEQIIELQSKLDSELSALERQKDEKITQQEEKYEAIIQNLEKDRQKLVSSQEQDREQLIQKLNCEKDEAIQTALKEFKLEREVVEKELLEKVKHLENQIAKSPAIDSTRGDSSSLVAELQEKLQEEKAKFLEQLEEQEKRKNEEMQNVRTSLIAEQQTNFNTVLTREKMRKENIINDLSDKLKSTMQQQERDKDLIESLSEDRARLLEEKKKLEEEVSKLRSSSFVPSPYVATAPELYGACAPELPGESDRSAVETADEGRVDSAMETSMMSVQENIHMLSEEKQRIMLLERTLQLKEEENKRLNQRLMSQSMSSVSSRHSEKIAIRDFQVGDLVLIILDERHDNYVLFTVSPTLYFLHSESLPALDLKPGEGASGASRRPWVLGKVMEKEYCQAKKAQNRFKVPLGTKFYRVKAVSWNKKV
GFP-FIP200 C-terminal region (CTR) (residues 1429–1591) (Q8TDY2-2, form named): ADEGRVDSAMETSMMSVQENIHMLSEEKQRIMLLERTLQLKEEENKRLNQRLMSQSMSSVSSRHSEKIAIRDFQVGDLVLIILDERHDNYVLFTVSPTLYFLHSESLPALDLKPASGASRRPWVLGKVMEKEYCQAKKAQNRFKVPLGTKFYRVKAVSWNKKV

Experiments:
BCL2L13(1–465aa)-GST [1] = target: T1, BCL2L13(1–465aa)-GST (human, UniProt Q9BXK5 1-465); assay: microscopy-based bead assay; as a3 (full-length FIP200-GFP prey, 4 h) with Lambda Protein Phosphatase and 1 mM MnCl2; both purified
T1 construct: BCL2L13, cytosol-exposed domain, residues 1-465; also called BCL2L13-GST; source: E. coli Rosetta pLysS, purified (glutathione beads, SEC); not shown: GST, C-terminal, kept

[2] = target: T2, FUNDC1(1–50aa)-GST (human) (UniProt Q8IVP5); assay: as above
T2 sequence: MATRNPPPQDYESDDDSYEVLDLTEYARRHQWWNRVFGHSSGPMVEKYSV

NIX(1–182aa)-GST (human) [3] = target: NIX(1–182aa)-GST (human) (UniProt O60238); assay: as above
BCL2L13(1–465aa)-GST [4] = target: T1, BCL2L13(1–465aa)-GST; assay: microscopy-based bead assay; as a3 (full-length FIP200-GFP prey, 4 h) with kinases TBK1, MBP-ULK1, CK2 or Src (Y530F) and 10 mM MgCl2, 100 uM ATP; both purified
[5] = target: T2, FUNDC1(1–50aa)-GST (human); assay: as above
NIX(1–182aa)-GST (human) [6] = target: NIX(1–182aa)-GST (human) (UniProt O60238); assay: as above
NIX(1–182aa)-GST (human) [7] = target: NIX(1–182aa)-GST (human) (UniProt O60238); assay: microscopy-based bead assay; glutathione beads coated with GST-tagged cargo receptors (5 uM), full-length FIP200-GFP as prey, co-incubated 4 h; 25 mM Tris-HCl pH 7.4, 150 mM NaCl, 1 mM DTT; both purified
NIX(1–182aa)-GST (human) [8] = target: NIX(1–182aa)-GST (human) (UniProt O60238); assay: microscopy-based bead assay; as a2 (GFP-FIP200 CTR prey) with Lambda Protein Phosphatase and 1 mM MnCl2; both purified
NIX(1–182aa)-GST (human) [9] = target: NIX(1–182aa)-GST (human) (UniProt O60238); assay: microscopy-based bead assay; as a2 (GFP-FIP200 CTR prey) with kinases TBK1, MBP-ULK1, CK2 or Src (Y530F) and 10 mM MgCl2, 100 uM ATP; both purified
[10] = target: T3, FUNDC1 Y18A/L21A (ΔLIR)-GST (human) (UniProt Q8IVP5); assay: microscopy-based bead assay; glutathione beads coated with GST-tagged cargo receptors (5 uM), GFP-FIP200 CTR (1429-1591) as prey, 30 min; 25 mM Tris-HCl pH 7.4, 150 mM NaCl, 1 mM DTT; confocal imaging; both purified
T3 sequence: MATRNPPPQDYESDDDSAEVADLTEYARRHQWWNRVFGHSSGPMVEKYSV

NIX(1–182aa)-GST (human) [11] = target: NIX(1–182aa)-GST (human) (UniProt O60238); assay: as above
NIX(1–182aa)-GST (human) [12] = target: NIX(1–182aa)-GST (human) (UniProt O60238); assay: in vitro binding assay; purified TBK1, PI3KC3-C1 complex or ATG9A-vesicles tested with BNIP3/NIX (Fig. S3); format not told in the text shown; both purified
NIX(1–182aa)-GST (human) [13] = target: NIX(1–182aa)-GST (human) (UniProt O60238); assay: pull-down; beads coated with GST, NIX-GST or BNIP3-GST, incubated overnight with HeLa cell lysate; SDS-PAGE and western blot for WIPI proteins; only the target purified
NIX(1–182aa)-GST (human) [14] = target: NIX(1–182aa)-GST (human) (UniProt O60238); assay: microscopy-based bead assay; glutathione beads coated with GST-tagged cargo receptors (5 uM), mCherry-tagged WIPI proteins as prey, co-incubated 2 h; 25 mM Tris-HCl pH 7.4, 150 mM NaCl, 1 mM DTT; confocal imaging; both purified

- binding (NIX(1–182aa)-GST (human) [12]): no binding
Molecule: mCherry-tagged PI3KC3-C1 complex (from UniProt Q6ZNE5 1-492; Q8NEB9 1-887; Q99570 1-1358; Q14457 1-450)

- binding (NIX(1–182aa)-GST (human) [13]): binds
B1: WIPI2 (endogenous, HeLa) (protein, UniProt Q9Y4P8 1-454)
chain: MNLASQSGEAGAGQLLFANFNQDNTEVKGASRAAGLGRRAVVWSLAVGSKSGYKFFSLSSVDKLEQIYECTDTEDVCIVERLFSSSLVAIVSLKAPRKLKVCHFKKGTEICNYSYSNTILAVKLNRQRLIVCLEESLYIHNIRDMKVLHTIRETPPNPAGLCALSINNDNCYLAYPGSATIGEVQVFDTINLRAANMIPAHDSPLAALAFDASGTKLATASEKGTVIRVFSIPEGQKLFEFRRGVKRCVSICSLAFSMDGMFLSASSNTETVHIFKLETVKEKPPEEPTTWTGYFGKVLMASTSYLPSQVTEMFNQGRAFATVRLPFCGHKNICSLATIQKIPRLLVGAADGYLYMYNLDPQEGGECALMKQHRLDGSLETTNEILDSASHDCPLVTQTYGAAAGKGTYVPSSPTRLAYTDDLGAVGGACLEDEASALRLDEDSEHPPMILRTD

The remaining lines, values behind:

Molecule: FIP200-GFP (full-length FIP200) (from UniProt Q8TDY2 1-1594)
- binding (BCL2L13(1–465aa)-GST [1]): binds
- binding [2]: binds
- binding (NIX(1–182aa)-GST (human) [3]): no binding
- binding (BCL2L13(1–465aa)-GST [4]): binds
- binding [5]: binds
- binding (NIX(1–182aa)-GST (human) [6]): no binding
- binding (NIX(1–182aa)-GST (human) [7]): no binding

Molecule: GFP-FIP200 C-terminal region (CTR) (residues 1429–1591) (from UniProt Q8TDY2-2 1429-1591) (domain or fragment)
- binding (NIX(1–182aa)-GST (human) [8]): no binding
- binding (NIX(1–182aa)-GST (human) [9]): no binding
- binding [10]: no binding
- binding (NIX(1–182aa)-GST (human) [11]): no binding

B2: TBK1 (enzyme, UniProt Q9UHD2 1-729)
chain: MQSTSNHLWLLSDILGQGATANVFRGRHKKTGDLFAIKVFNNISFLRPVDVQMREFEVLKKLNHKNIVKLFAIEEETTTRHKVLIMEFCPCGSLYTVLEEPSNAYGLPESEFLIVLRDVVGGMNHLRENGIVHRDIKPGNIMRVIGEDGQSVYKLTDFGAARELEDDEQFVSLYGTEEYLHPDMYERAVLRKDHQKKYGATVDLWSIGVTFYHAATGSLPFRPFEGPRRNKEVMYKIITGKPSGAISGVQKAENGPIDWSGDMPVSCSLSRGLQVLLTPVLANILEADQEKCWGFDQFFAETSDILHRMVIHVFSLQQMTAHKIYIHSYNTATIFHELVYKQTKIISSNQELIYEGRRLVLEPGRLAQHFPKTTEENPIFVVSREPLNTIGLIYEKISLPKVHPRYDLDGDASMAKAITGVVCYACRIASTLLLYQELMRKGIRWLIELIKDDYNETVHKKTEVVITLDFCIRNIEKTVKVYEKLMKINLEAAELGEISDIHTKLLRLSSSQGTIETSLQDIDSRLSPGGSLADAWAHQEGTHPKDRNVEKLQVLLNCMTEIYYQFKKDKAERRLAYNEEQIHKFDKQKLYYHATKAMTHFTDECVKKYEAFLNKSEEWIRKMLHLRKQLLSLTNQCFDIEEEVSKYQEYTNELQETLPQKMFTASSGIKHTMTPIYPSSNTLVEMTLGMKKLKEEMEGVVKELAENNHILERFGSLTMDGGLRNVDCL
- binding (NIX(1–182aa)-GST (human) [12]): no binding

B3: mCherry-tagged WIPI1 (protein, UniProt Q5MNZ9 1-446)
chain: MEAEAADAPPGGVESALSCFSFNQDCTSLATGTKAGYKLFSLSSVEQLDQVHGSNEIPDVYIVERLFSSSLVVVVSHTKPRQMNVYHFKKGTEICNYSYSSNILSIRLNRQRLLVCLEESIYIHNIKDMKLLKTLLDIPANPTGLCALSINHSNSYLAYPGSLTSGEIVLYDGNSLKTVCTIAAHEGTLAAITFNASGSKLASASEKGTVIRVFSVPDGQKLYEFRRGMKRYVTISSLVFSMDSQFLCASSNTETVHIFKLEQVTNSRPEEPSTWSGYMGKMFMAATNYLPTQVSDMMHQDRAFATARLNFSGQRNICTLSTIQKLPRLLVASSSGHLYMYNLDPQDGGECVLIKTHSLLGSGTTEENKENDLRPSLPQSYAATVARPSASSASTVPGYSEDGGALRGEVIPEHEFATGPVCLDDENEFPPIILCRGNQKGKTKQS
- binding (NIX(1–182aa)-GST (human) [14]): binds
